Measurements taken from PubChem BioAssay AID588342 (National Center for Advancing Translational Sciences (NCATS), 2011).
Hit rate of the full screen: of about 360,000 compounds, about 25,000 (6.9%) were called active. The shares of active, inactive and inconclusive entries below differ from those in the screen. Calls follow the shape of the dose curve; as a rule, active = well fitted inhibition curve with a large enough effect; inconclusive = small, poorly fitted or top-dose-only effect; inactive = flat fitted curve, though single readings scatter. A potency beside an inconclusive call is a rough fit, not a confirmed value.
Also: nearly all actives have a fitted effect of over 55% in size.
Potency is read from the fitted curve at half-maximal effect; tags tell the direction and shape of the fitted curve.

These compounds were tested against Luciferin 4-monooxygenase (Photinus pyralis) (UniProt P08659) (assay: qHTS profiling assay for firefly luciferase inhibitor/activator using purifed enzyme and Km concentrations of substrates (counterscreen for miR-21 project)). Conditions: purified FLuc, luminescence inhibition; series mostly up to 57.5 µM.
Sequence of UniProt P08659 (P08659 whole entry, looked up): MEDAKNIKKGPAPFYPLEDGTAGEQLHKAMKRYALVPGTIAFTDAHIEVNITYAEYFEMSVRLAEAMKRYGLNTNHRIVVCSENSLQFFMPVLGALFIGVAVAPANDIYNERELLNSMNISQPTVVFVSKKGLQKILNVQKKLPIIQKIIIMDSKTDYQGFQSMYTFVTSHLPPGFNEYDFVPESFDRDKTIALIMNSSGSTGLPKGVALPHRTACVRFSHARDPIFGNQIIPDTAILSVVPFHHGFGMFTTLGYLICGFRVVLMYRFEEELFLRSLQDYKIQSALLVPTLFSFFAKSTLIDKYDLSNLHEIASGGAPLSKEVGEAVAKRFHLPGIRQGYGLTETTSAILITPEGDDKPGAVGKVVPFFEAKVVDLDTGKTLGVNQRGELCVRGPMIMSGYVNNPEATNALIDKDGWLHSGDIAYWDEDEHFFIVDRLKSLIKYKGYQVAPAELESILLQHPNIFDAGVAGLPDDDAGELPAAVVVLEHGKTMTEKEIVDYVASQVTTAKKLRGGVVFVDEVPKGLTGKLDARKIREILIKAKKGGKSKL
Method in brief: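 Purified P. pyralis luciferase, 10 nM final, with Km-level 10 uM D-luciferin and 10 uM ATP in 50 mM Tris acetate pH 7.5, 10 mM Mg acetate, 0.01% Tween-20, 0.05% BSA; 6-point qHTS titration about 60 µM downward; luminescence read.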
For `COc1ccc2c(c1)CCC1C2=NN(/C(C)=C\C(C)=O)C1c1ccc(F)cc1` (configuration not stated), the Potency was active: 13.5 µM.
For `O=c1oc2ccccc2c(O)c1C=NCc1ccccn1`, the Potency was inconclusive: 23.9 µM [inhibitor, partial curve, poor fit].
With `COCCOC(=O)c1c(C)oc2ccc(OC(=O)c3ccc4c(c3)OCO4)cc12` the Potency was inconclusive: 37.9 µM [inhibitor, partial curve, poor fit].
With `CC(C)c1ccc(NC(=O)c2cnc3sc(N4CCCC4)nn3c2=O)cc1` the Potency was inconclusive: 2.39 µM [inhibitor, full curve].
In the case of `COC(=O)c1ccc(NC(=O)Nc2cccc(F)c2)cc1`, the Potency is reported as active: 4.78 µM.
In the case of `Nc1ccc(-c2nc3c(Cl)cc(N)cc3[nH]2)cc1`, the Potency is reported as active: 21.3 µM.
`COc1ccc(/C=C/C(=O)NCCc2nc3ccccc3[nH]2)cc1` was tested, and the Potency was inconclusive: 37.9 µM [inhibitor, single point].
In the case of `Cc1cc(C)c(C(=O)CSc2nnc(C)s2)c(C)c1`, the Potency is reported as “inactive”.
In the case of `O=C(COc1cccc2ccccc12)Nc1ccc(Cl)cc1C(=O)O`, the Potency is reported as inconclusive: 37.9 µM [inhibitor, single point].
In the case of `CC(=O)Nc1ccc(NC(=O)C(C)OC(=O)/C(C#N)=C/c2ccc(N(C)C)cc2)cc1` (configuration not stated), the Potency is reported as active: 9.53 µM.
`CCOc1ccccc1-c1nc(-c2ccc(NC(=O)c3ccc(Br)o3)cc2)no1` was tested, and the Potency was inconclusive: 26.9 µM [inhibitor, partial curve, poor fit].
For `O=C(NC(Cc1c[nH]c2ccccc12)C(=O)O)/C(=C/c1ccc2c(c1)OCO2)NC(=O)c1ccccc1` (configuration not stated), the Potency was inconclusive: 21.3 µM [inhibitor, partial curve, poor fit].
With `Cc1cc(C(=O)CSc2nnc(-c3cccs3)o2)c(C)n1-c1ccccc1` the Potency was active: 6.75 µM.
With `COc1ccc(NC(=O)/C=C/c2ccccc2)c([N+](=O)[O-])c1` the Potency was inconclusive: 4.78 µM [inhibitor, full curve].
`CCOC(=O)C1CCCN(c2cc(C)nc3cc(-c4ccc(Cl)cc4)nn23)C1` (configuration not stated) was tested, and the Potency was “inactive”.
With `CC(C(=O)NCc1ccco1)n1cc([N+](=O)[O-])cn1` (configuration not stated) the Potency was “inactive”.
For `O=C(Cn1c(=O)n(Cc2ccccc2)c(=O)c2sc3ccccc3c21)Nc1ccc(F)cc1`, the Potency was “inactive”.
In the case of `Cc1ccc(C)n1-c1ccc(C(=O)Nc2ccccc2F)cc1`, the Potency is reported as inconclusive: 23.9 µM [inhibitor, single point].
In the case of `N#Cc1cncc(C#Cc2ccccc2)c1`, the Potency is reported as inconclusive: 37.9 µM [inhibitor, partial curve, poor fit].
In the case of `O=C(O)c1cc(S(=O)(=O)Nc2ccc(N3CCCCC3)cc2)ccc1Cl`, the Potency is reported as inconclusive: 10.7 µM [inhibitor, partial curve].
For `CC1(c2ccccc2)NC(=O)N(CC(=O)Nc2cccc(/C=C/c3ccccn3)c2)C1=O` (configuration not stated), the Potency was active: 19 µM.
`Cc1ccccc1N1CCN(C(=O)CCN2C(=O)c3ccccc3C2=O)CC1` was tested, and the Potency was active: 16.9 µM.
With `CN(C)/C=C/C(=O)Oc1ccc(Cl)cc1Cl` the Potency was inconclusive: 26.9 µM [inhibitor, partial curve].
For `CCCOc1ccc(-c2nc3ccc(Br)cc3c(=O)o2)cc1`, the Potency was inconclusive: 30.1 µM [inhibitor, single point].
In the case of `Cc1cnc(NC(=O)COc2ccccc2)s1`, the Potency is reported as active: 10.7 µM.
For `N#Cc1cc2c(nc1SCC(=O)Nc1nccs1)CCCCC2`, the Potency was active: 0.675 µM.
With `Cc1ccsc1C(=O)NCC(=O)OCc1ccccc1` the Potency was inconclusive: 21.3 µM [inhibitor, partial curve].
With `Cc1ccc(-c2cc(C(=O)NCCCN3CCOCC3)c3ccccc3n2)cc1C` the Potency was active: 12 µM.
With `COc1ncnc2c1cnn2-c1ccccc1` the Potency was inconclusive: 23.9 µM [inhibitor, partial curve].
For `C/C(=N\NC(=O)CCC(=O)Nc1ccc(C)c(C)c1)c1cccs1`, the Potency was “inactive”.
For `CC(C)C(C)(C#N)NC(=O)CSc1ncnc2sc(-c3ccccc3)cc12` (configuration not stated), the Potency was inconclusive: 8.49 µM [inhibitor, partial curve].
In the case of `O=C(Cc1cccs1)Nc1cccc(-c2nc3ccccc3[nH]2)c1`, the Potency is reported as inconclusive: 19 µM [inhibitor, partial curve].
For `O=C(CSc1nnc(COc2ccccc2)o1)c1ccccc1`, the Potency was inconclusive: 30.1 µM [inhibitor, partial curve, poor fit].
With `O=C(N/N=C/c1ccccc1Cl)c1ccncc1` the Potency was inconclusive: 16.9 µM [inhibitor, partial curve].
For `C=CCNc1nc(Nc2ccc(OC)cc2)nc(OCC)n1`, the Potency was inconclusive: 21.3 µM [inhibitor, partial curve, poor fit].
In the case of `CCN(CC)S(=O)(=O)c1cccc(NC(=O)CNc2cccc(S(=O)(=O)N3CCOCC3)c2)c1`, the Potency is reported as “inactive”.
In the case of `C=CCn1c(=O)c(C(=O)Nc2ccccc2O)c(O)c2ccccc21`, the Potency is reported as inconclusive: 37.9 µM [inhibitor, partial curve, poor fit].
For `CCOC(=O)c1c(C)oc2c1cc(O)c1ccccc12`, the Potency was active: 2.39 µM.
In the case of `Cc1ccc(-c2cc3nccc(-c4cc([N+](=O)[O-])ccc4O)n3n2)cc1`, the Potency is reported as inconclusive: 10.7 µM [inhibitor, partial curve].
For `CCOC(=O)C1=C(COC(=O)COc2ccccc2C(C)C)NC(=O)NC1C` (configuration not stated), the Potency was “inactive”.
For `O=C(CSc1nccc(=O)[nH]1)Nc1ccc(N2CCOCC2)c(Cl)c1`, the Potency was inconclusive: 37.9 µM [inhibitor, single point].
In the case of `Cc1ccc(-c2noc(CN(C(=O)CCCCCN3C(=O)c4ccccc4C3=O)C(C)C)n2)cc1`, the Potency is reported as “inactive”.
In the case of `CCOc1ccc(NC(=O)Nc2cc3c(cc2N2CCCCC2)n(C)c(=O)n3C)cc1`, the Potency is reported as “inactive”.
With `O=C(Nc1ccccc1Br)c1cc(S(=O)(=O)NC2CCCCC2)ccc1F` the Potency was “inactive”.
For `COc1ccc(C)cc1NC(=O)C1CCCN(S(=O)(=O)c2cccc3cccnc23)C1` (configuration not stated), the Potency was “inactive”.
In the case of `O=C(NC1CCSc2ccccc21)c1cc(S(=O)(=O)N2CCOCC2)ccc1Cl` (configuration not stated), the Potency is reported as “inactive”.
With `Cc1ccc2nc(-c3ccc(NC(=O)COc4ccccc4C(C)(C)C)cc3)sc2c1` the Potency was active: 9.53 µM.
For `CCc1ccc(NC(=O)c2sccc2-n2cccc2)cc1`, the Potency was inconclusive: 33.8 µM [inhibitor, partial curve, poor fit].
For `CCc1ccc(NC(=O)C2CCN(S(=O)(=O)c3cccc(-c4noc(C)n4)c3)CC2)cc1`, the Potency was “inactive”.
In the case of `CC(C)(C)c1ccc(CSc2nc(N)cc(=O)[nH]2)cc1`, the Potency is reported as inconclusive: 23.9 µM [inhibitor, partial curve].
`COc1cccc(-c2oc3ccc(C)cc3c(=O)c2O)c1` was tested, and the Potency was active: 2.69 µM.
For `O=C(Nc1nc2ccccc2[nH]1)C1CCC1`, the Potency was active: 16.9 µM.
In the case of `CC1(C)CC(NC(=O)c2ccc(Cl)c(S(=O)(=O)N(Cc3ccccc3)c3ccccc3)c2)CC(C)(C)N1`, the Potency is reported as “inactive”.
`CCOc1cc(/C=N/N=C2/NC(=O)C(CC(=O)O)S2)ccc1OCc1ccc(Cl)cc1` (configuration not stated) was tested, and the Potency was inconclusive: 23.9 µM [inhibitor, partial curve].
For `CN(Cc1cc(=O)[nH]c2ccccc12)C(=O)c1ccccc1`, the Potency was inconclusive: 37.9 µM [inhibitor, partial curve, poor fit].
In the case of `CCc1ccc(C2C(C(=O)Nc3ccccc3OC)=C(C)Nc3nc(SCc4ccccc4)nn32)cc1` (configuration not stated), the Potency is reported as “inactive”.
`COc1ccc(OC)c(NC(=O)Nc2nnc(N3CCC(C)CC3)s2)c1` was tested, and the Potency was active: 23.9 µM.
For `O=C(Nc1cccc(NC(=O)c2cccs2)c1)c1ccco1`, the Potency was inconclusive: 15.1 µM [inhibitor, partial curve].
In the case of `CCOc1ccc(NC(=O)NCc2ccco2)cc1`, the Potency is reported as inconclusive: 33.8 µM [inhibitor, partial curve, poor fit].
In the case of `CCOC(=O)C1CCN(C(=O)c2cc3cc(Cl)ccc3[nH]2)CC1`, the Potency is reported as inconclusive: 23.9 µM [inhibitor, partial curve].
`COc1ccc(OC)c(-c2nc3c(C)n[nH]c(=O)c3[nH]2)c1` was tested, and the Potency was “inactive”.
For `COc1ccc(C(=O)c2c3ccc([N+](=O)[O-])cc3[n+]([O-])n2CCCN)cc1`, the Potency was inconclusive: 23.9 µM [inhibitor, partial curve, poor fit].
With `Cc1ccc(C(=O)NCc2ccc3c(c2)OCO3)cc1C` the Potency was inconclusive: 23.9 µM [inhibitor, partial curve, poor fit].
In the case of `COc1cc(NC(=O)Cn2ccc3ccccc3c2=O)cc(OC)c1OC`, the Potency is reported as “inactive”.
For `CCc1ccc(NCc2ccc(OC)c(Cn3ccnc3)c2)cc1`, the Potency was inconclusive: 37.9 µM [inhibitor, partial curve, poor fit].
With `Cn1c(SCC(=O)Nc2ccc(NC(=O)c3ccccc3)cc2)nnc1-c1ccncc1` the Potency was inconclusive: 7.57 µM [inhibitor, partial curve, poor fit].
In the case of `O=C(Nc1ccc(N2CCCC2)cc1)c1ccc(Br)cc1`, the Potency is reported as inconclusive: 16.9 µM [inhibitor, partial curve].
`CC(=O)Nc1ccccc1OCc1nnc(-c2ccc(Cl)cc2)o1` was tested, and the Potency was inconclusive: 21.3 µM [inhibitor, single point].
In the case of `Cc1cccc(OCC(=O)Nc2ccc3c(c2)nc(CN2CCCCC2)n3C)c1`, the Potency is reported as inconclusive: 37.9 µM [inhibitor, partial curve, poor fit].
With `Cc1cc(C)c(-c2cc(NC(=O)CSc3n[nH]c(N)n3)n(-c3ccccc3)n2)cc1C` the Potency was inconclusive: 37.9 µM [inhibitor, partial curve, poor fit].
With `CCOC(=O)C1CCN(C(=O)C2CCN(S(=O)(=O)c3cc(Cl)ccc3OCC)CC2)CC1` the Potency was “inactive”.
`O=S(=O)(c1ccc(-c2csc(=Nc3ccc(F)cc3)n2CCCCCCO)cc1)N1CCCC1` was tested, and the Potency was “inactive”.
